# According to publication PMC4336329 (PLoS ONE, 2015):
# Hit rate of the full screen: of about 310,000 compounds, about 2,200 (0.71%) showed an effect of 50% or more. Effects have a minus sign here. The list shows a part of the results.
# Target: human ether-à-go-go-related gene (hERG) potassium channel (human, UniProt Q12809)
# Assay: primary screen, population patch clamp on CHO cells stably expressing hERG
# human ether-à-go-go-related gene (hERG) potassium channel, sequence (Q12809 whole entry, looked up): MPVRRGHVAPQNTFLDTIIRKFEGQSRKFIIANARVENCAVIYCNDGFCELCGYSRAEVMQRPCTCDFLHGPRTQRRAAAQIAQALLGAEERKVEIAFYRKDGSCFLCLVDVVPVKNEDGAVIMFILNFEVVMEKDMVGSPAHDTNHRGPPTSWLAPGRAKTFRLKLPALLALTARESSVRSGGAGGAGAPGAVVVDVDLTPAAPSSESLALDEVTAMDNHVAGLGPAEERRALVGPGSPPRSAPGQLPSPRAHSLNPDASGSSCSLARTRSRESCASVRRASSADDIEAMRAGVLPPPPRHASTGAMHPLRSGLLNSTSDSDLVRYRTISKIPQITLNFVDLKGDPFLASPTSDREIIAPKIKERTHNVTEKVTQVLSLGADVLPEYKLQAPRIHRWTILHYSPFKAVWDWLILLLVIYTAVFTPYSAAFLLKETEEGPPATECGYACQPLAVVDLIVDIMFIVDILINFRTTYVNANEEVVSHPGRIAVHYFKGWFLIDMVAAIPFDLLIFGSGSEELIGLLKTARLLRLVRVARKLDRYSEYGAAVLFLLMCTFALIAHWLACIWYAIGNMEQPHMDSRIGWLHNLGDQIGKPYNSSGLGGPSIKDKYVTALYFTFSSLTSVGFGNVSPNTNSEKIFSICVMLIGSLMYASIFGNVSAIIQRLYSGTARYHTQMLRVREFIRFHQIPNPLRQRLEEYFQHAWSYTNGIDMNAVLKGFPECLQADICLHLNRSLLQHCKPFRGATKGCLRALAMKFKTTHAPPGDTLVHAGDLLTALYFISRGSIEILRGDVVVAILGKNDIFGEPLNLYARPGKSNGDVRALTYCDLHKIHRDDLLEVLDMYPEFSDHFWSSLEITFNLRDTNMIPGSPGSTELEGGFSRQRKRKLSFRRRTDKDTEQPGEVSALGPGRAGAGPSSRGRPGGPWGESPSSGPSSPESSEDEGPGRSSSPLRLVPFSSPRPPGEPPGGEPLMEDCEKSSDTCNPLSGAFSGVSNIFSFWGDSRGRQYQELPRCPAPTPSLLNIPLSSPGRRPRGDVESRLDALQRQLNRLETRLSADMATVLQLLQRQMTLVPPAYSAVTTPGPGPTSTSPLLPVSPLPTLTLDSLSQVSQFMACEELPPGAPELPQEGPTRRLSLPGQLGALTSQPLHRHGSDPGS
row,SMILES,"hERG current change (%, negative = inhibition) at 1uM"
1,Cc1nn(CCC#N)c(NC(=O)c2ccc(Cl)cc2)c1P(=O)(Nc1ccc([N+](=O)[O-])cc1)N1CCOCC1 (stereo not drawn),11.4%
2,Cc1cccc(CN2CCCC(C(=O)c3ccc4c5c(cccc35)CC4)C2)n1 (stereo not drawn),7.32%
3,O=C(c1cccc(F)c1)N1CCc2ccccc2C1,-4.32%
4,O=C(N/N=C/c1c[nH]c2ccccc12)c1ccc([N+](=O)[O-])cc1Cl,14.1%
5,CCOC(=O)C1CCCN(C(=O)Cc2ccc(C)cc2)C1 (stereo not drawn),7.03%
6,O=C(CN1C(=O)S/C(=C/c2cccs2)C1=O)N1CCOCC1,12.5%
7,CCOC(=O)C1=C(CSc2nc(CC)c(C)cc2C#N)OC(N)=C(C#N)C1c1ccccc1 (stereo not drawn),5%
8,Nc1nc(SCC(=O)NCCC(c2ccccc2)c2ccccc2)n[nH]1,11.2%
9,Cl.N[C@@H](Cc1ccc(O)cc1)c1nnc([C@H](CO)NC(=O)C2CCNCC2)o1,8.64%
10,O=C(OCC(=O)C12CC3CC(CC(C3)C1)C2)c1ccc(CO)cc1,-5.02%
11,Cc1c(NS(=O)(=O)c2ccc3c(c2)OCCO3)cccc1-c1nc2cccnc2s1,11.6%
12,Nc1c(C(=O)NCc2ccco2)c2nc3ccccc3nc2n1CCc1ccc(F)cc1,2.99%
13,CCCC(c1nnnn1CCOC)N(Cc1cc2cc(C)c(C)cc2[nH]c1=O)CC1CCCO1 (stereo not drawn),-0.194%
14,Cc1ccc(C(=O)N2CCN(c3ccccc3O)CC2)cc1S(=O)(=O)N1CCCCC1,-4.54%
15,O=C(NCCCN1CCOCC1)C1CCN(S(=O)(=O)c2cccc(C(F)(F)F)c2)CC1,6.36%
16,O=c1[nH]c(=O)n(-c2cccc(F)c2)c(O)c1/C=C1\C=Nc2ccccc21,11.8%
17,O=C(COc1ccccc1)NCC1COc2ccccc2O1 (stereo not drawn),14.1%
18,CCN(CC)CCNC(=O)c1cc2cc(Br)ccc2s1,-13.5%
19,CCCc1cc(=O)oc2cc(C)cc(OCC(=O)NCc3ccccn3)c12,-5.56%
20,Cc1cc(C)cc(Nc2nc3c(S(=O)(=O)c4ccccc4)nnn3c3ccccc23)c1,11.3%
21,Cc1ccc(N(CC(=O)Nc2c(C)n(C)n(-c3ccccc3)c2=O)S(C)(=O)=O)cc1C,17.1%
22,COC(=O)c1ccccc1NC(=O)c1ccc2c(c1)OCCCO2,11.2%

row,SMILES,"hERG current change (%, negative = inhibition) at 1uM"
1,Cn1c(=O)c2c(ncn2CC(N)=O)n(C)c1=O,17.4%
2,COc1ccccc1CC1(C)NC(=O)N(CC(=O)Nc2cc(C)on2)C1=O (stereo not drawn),7.33%
3,C[C@@H](N)Cc1cnc[nH]1.Cl,12%
4,CC1CN(c2ccc(NC(=S)Nc3ccc(N4CC(C)OC(C)C4)cc3)cc2)CC(C)O1 (stereo not drawn),14%
5,Cc1sc2nc(CN3CCCC3)nc(N3CCN(S(=O)(=O)c4cccc(F)c4)CC3)c2c1C,-8.91%
6,CCc1nn(CC(=O)NCc2ccccc2Cl)c(=O)c2cccn12,9.92%
7,O=C(CCCN1C(=O)/C(=C\c2ccccc2)SC1=S)Nc1ccccc1O,19.6%
8,Cc1cc(=O)oc2ccc(OC(=O)CC(C)C)cc12,22.5%
9,CCOC(=O)Cc1csc(NC(=S)NC(=O)c2ccc(F)cc2)n1,15.4%
10,COc1cc(CNC2CCCCCCC2)ccc1OCC(N)=O,15.9%
11,COC(=O)c1ccc(NC(=O)Nc2ccc(C)cc2)cc1,1.74%
12,O=C(NCCNC(=O)c1ccccc1Br)c1cccnc1,22.1%
13,CCO[C@H]1OC(C(=O)O)=C[C@@H](C2CCCCC2)[C@@H]1CCCO,16.5%
14,CN(CC(=O)N1CC=C(c2ccccc2)CC1)S(=O)(=O)c1ccc2c(c1)c(=O)n(C)c(=O)n2C,-5.99%
15,CC1CCC2C(=O)N(c3ccc(C(=O)NCc4ccccc4)cc3)C(=O)C2C1 (stereo not drawn),13.3%
16,Cn1nc(-c2ccc(OCC(=O)Nc3ccccc3)cc2)c2ccccc2c1=O,1.65%
17,Cc1ccc(C(C(=O)NC2CCCC2)N(C(=O)CNC(=O)c2cccs2)c2cccnc2)o1 (stereo not drawn),7.74%
18,O=C(CNC(=O)OCc1ccccc1)NC1CCCCCC1,13.4%
19,Cc1cnc(C(=O)OCC(=O)c2csc(N3CCCCC3)n2)cn1,10.6%
20,COc1cccc(NC(=O)CN(C)C(=O)c2c(-c3ccccc3)noc2C)c1,7.25%
21,O=S(=O)(C/C(=C/CO)S(=O)(=O)c1ccccc1)c1ccccc1,-6.91%
22,O=C(Nc1nnc(SCCN2CCOCC2)s1)C1CC(=O)N(c2ccccc2)C1 (stereo not drawn),11.4%

row,SMILES,"hERG current change (%, negative = inhibition) at 1uM"
1,Cc1ccc(S(=O)(=O)n2ccc3c(OCCOCCNCc4ccc(F)cc4)cccc32)cc1,10.2%
2,CCOC(=O)c1c(/N=C/C2C(=O)NC(=S)NC2=O)sc(C)c1C,8.52%
3,CCc1cc(-c2n[nH]c(=S)n2Cc2ccccc2)cs1,5.55%
4,CCOc1ccc(/C=N/O)cc1,3.54%
5,C/C(=N\NC(=S)NC1CCCCC1)c1ccc(Cl)c(Cl)c1,7.3%
6,Cc1ccc(Cn2c(C(C)Nc3nc(C)cs3)nc3cc(Cl)c(Cl)cc32)cc1 (stereo not drawn),18.3%
7,COc1ccc(C)cc1NC(=O)C1CC(=O)N(Cc2ccco2)C1 (stereo not drawn),7.29%
8,CC(Oc1ccc(Br)cc1)C(=O)Nc1cc(S(=O)(=O)N2CCOCC2)ccc1N1CCCC1 (stereo not drawn),2.72%
9,Cc1[nH]nc(Nc2ccc(C(C)C)cc2)c1[N+](=O)[O-],10.8%
10,Cc1cc(=O)oc2cc(OCC(=O)N3c4ccccc4CC3C)ccc12 (stereo not drawn),10.7%
11,COc1cccc(OC)c1C(=O)Nc1ccccc1NC(=O)c1c(OC)cccc1OC,9.5%
12,COCCCNC(=O)c1c(NC(=O)c2cccs2)sc2c1CCCC2,4.04%
13,COc1c(/C=C2\SC(=Nc3ccccc3Cl)NC2=O)cccc1[N+](=O)[O-],13.8%
14,CC(C)N(Cc1cc2ccccc2[nH]c1=O)C(=O)c1cccc([N+](=O)[O-])c1,4.34%
15,CN1CCOCCOCCOCCN(C)C1=S,17.1%
16,O=C(c1ccc(F)cc1)N1CCN(c2ccc(N3CCOCC3)nn2)CC1,6.8%
17,COc1cc(C)c(CN2CCC(Oc3ccc(C(=O)N4CCCC4)cc3)CC2)cc1C,-7.65%
18,CCOC(=O)c1c2c3c(cccc3n(C)c1=O)C(=O)c1ccccc1-2,-16.2%
19,CCOCCCNC(=O)C(c1ccc(C)cc1)N(Cc1cccs1)C(=O)c1ccccn1 (stereo not drawn),2.18%
20,CC(C)=C1SC(N2CCN(c3cccc(Cl)c3)CC2)=NC1=O,12.3%
21,CC(C)c1nc(-c2ccccn2)no1,-3.37%
22,Cc1cc(OC(C)C(=O)NNC(=O)Nc2ccc(F)cc2F)cc(C)c1Cl (stereo not drawn),14.6%

row,SMILES,"hERG current change (%, negative = inhibition) at 1uM"
1,Cc1cccc(CN2C(=O)[C@@H]3Cc4c([nH]c5ccccc45)C(C)(C)N3C2=O)c1,6.9%
2,Cc1ccc(-c2ccc(/C=N/NC(=O)CN3CCCC3)o2)cc1Cl,-24.6%
3,CCCCOc1ccc(/C=N/NC(=S)Nc2cccc(C)c2C)cc1,-7.15%
4,c1csc(-c2nc3ccccc3s2)c1,-12.3%
5,CCc1ccc(-c2csc(NC(=O)C3=NN(c4ccccc4)C(=O)CC3)n2)cc1,19.3%
6,Cc1c(N2CCCC2)cc2c(c1NC(=O)c1ccccc1Cl)C(C)(C)CC2(C)C,12.9%
7,CC(C)Cn1c2c(c(O)c(C(=O)Nc3ncccc3O)c1=O)CCCC2,5.51%
8,Cc1ccc(-n2nnnc2-c2nc3ccccc3s2)cc1,19.9%
9,O=c1ccnc(SCCc2ccccc2)[nH]1,17.6%
10,CSC1=C(C#N)C(C)C2=C(CC(C)(C)CC2=O)N1 (stereo not drawn),7.22%
11,CCOC(=O)c1ccc(S(=O)(=O)N2CCN(CC(O)COc3cccc(C(C)=O)c3)CC2)cc1.O=C(O)C(=O)O (stereo not drawn),10%
12,COc1ccc(NC(=O)CSc2nnc(C3CC3)n2-c2ccccc2)cc1,-4.85%
13,CN(C)CCCNC(=O)c1cc(C(=O)c2cccc(Cl)c2Cl)c[nH]1,-8.64%
14,O=[N+]([O-])c1ccc(Oc2ccc(-c3nnco3)cc2)c(Cl)c1,-3.69%
15,CCC(C)(C)NC(=O)C(c1cccn1C)N(Cc1ccc(OC)cc1)C(=O)Cn1nnc2ccccc21 (stereo not drawn),1.79%
16,O=C(Nc1ccccc1)NN1CC(=O)N(c2ccc(Cl)cc2)CC1=O,15.3%
17,COc1ccc(-c2noc(N3CCCC(C(=O)Nc4ccc(F)cc4F)C3)n2)cc1 (stereo not drawn),-12.7%
18,CC(C)[C@H](N)c1nnc(SCc2ccc(Cl)cc2)o1.Cl,13%
19,COc1ccc(NC(=O)C2CCCC2)cn1,15.3%
20,Clc1ccc(Cc2nnc(-c3ccccc3Br)o2)cc1,13.4%
21,COc1ccc(S(=O)(=O)CCC(=O)N(C)c2ccc(OC)cc2OC)cc1,-2.39%
